# Experimental data as given in PubChem BioAssay AID651820 (National Center for Advancing Translational Sciences (NCATS), 2012).
# Several values for one entry are separate records, joined by “and”; a condition that tells them apart may be missing. Equal entries are not always repeated. Screen size: about 340,000 compounds; about 12,000 (3.5%) were called active. The shares of active, inactive and inconclusive entries below differ from those in the screen. Calls come from the whole dose curve; as a rule, active = well fitted inhibition curve with a large enough effect; inconclusive = small, poorly fitted or top-dose-only effect, or another doubt; inactive = no such curve, though single readings can be large or run the other way. Where the call is inconclusive, the potency comes from a doubtful curve fit.
# Assay: qHTS Assay for Inhibitors of Hepatitis C Virus (HCV)
# Settings: Huh7.5.1 HCVcc-Cre (HCVcc is cell-culture hepatitis C virus) infection, luciferase reporter, 44 h; activity change, negative = inhibition: at 41.8 µM (top of the series) unless noted
# Outline: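 Antiviral activity was scored by luciferase reporter output from cells infected with HCVcc-Cre (~0.5 moi) in presence of compound, 44 h infection period, cells seeded 1,000/well 4 h prior.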
# % is set by controls: 0 for no effect and ±100 for the full control effect; potency is the fitted concentration of half-maximal effect; tags give direction and shape of the fitted curve.
Structure (SMILES),Potency,"activity change, negative = inhibition"
O=C(CSCc1cccc(Br)c1)N=Nc1c(O)[nH]c2ccccc12,"inconclusive: 11.2 µM [inhibitor, partial curve, poor fit]",–
Cc1cn([C@H](C(=O)NCCCCCCCCCCC(=O)N2CCN(C(=O)OC(C)(C)C)CC2)[C@@H](C)O)nn1,"inconclusive: 3.16 µM [inhibitor, full curve, poor fit]",–
CN(CC(=O)Nc1ccc(F)cc1)C(=O)c1cn(-c2ccccc2)nc1-c1cccs1,"inconclusive: 14.1 µM [inhibitor, single point]",–
CCCCN(CC)CCCNC(=O)C1CCN(c2ncnc3c2sc2cccc(F)c23)CC1,"inconclusive: 15.8 µM [inhibitor, partial curve]",–
Nc1nonc1C(=O)NCCNCc1cc(Br)ccc1OCc1ccc(F)cc1,"inconclusive: 14.1 µM [inhibitor, single point]",–
O=C(CSc1nnc2sc3ccccc3n12)c1ccco1,"inconclusive: 1.78 µM [inhibitor, partial curve]",–
Cc1ccc2oc(-c3ccc(NC(=O)c4ccc5c(c4)OCO5)cc3)nc2c1,"inconclusive: 35.5 µM [inhibitor, partial curve, poor fit]",–
CN(C)c1ccc(-c2nc3ccccc3c(=O)[nH]2)cc1,inactive,–
CCCc1cc(C(=O)Nc2ccccc2C(=O)OC)no1,active: 10 µM,–
CC(C)(C)c1cc(C(=O)Nc2ccc(F)cc2)n(Cc2ccc(F)cc2)n1,active: 11.2 µM,–
O=C(CCS(=O)(=O)c1ccc(Br)cc1)N1CCN(c2ccc(F)cc2)CC1,inactive,–
CCCNC(=O)c1cc(Cl)c(NC(=O)C2=C(C)OCCS2)cc1OC,"inconclusive: 1.12 µM [inhibitor, full curve, poor fit]",–
COc1ccc(CN(C)Cc2nc(Cc3cccc(F)c3)no2)c2cccnc12,active: 10 µM,–
Cc1ccc2[nH]c(=O)c(CN(Cc3ccc4c(c3)OCO4)Cc3nnnn3Cc3ccco3)cc2c1,"inconclusive: 2 µM [inhibitor, single point]",–
O=[N+]([O-])c1ccc(Sc2ccc(Cl)c(Cl)c2)nc1,"inconclusive: 11.2 µM [inhibitor, single point]",–
CCOC(=O)Nc1ccc2c(c1)N(C(=O)CN(C)C)c1ccccc1CC2,inactive,–
CC1=CC(=O)CC(C)(C)[C@@]1(O)/C=C/[C@@H](C)O[C@@H]1O[C@H](CO)[C@@H](O)[C@H](O)[C@H]1O,"inconclusive: 5.62 µM [inhibitor, single point]",–
CSc1nnc2c3cc(F)ccc3n(Cc3ccccc3)c2n1,"inconclusive: 12.6 µM [inhibitor, partial curve]",–
CCn1c(SCc2ccc(F)cc2)nnc1C1CCN(S(=O)(=O)c2ccc(OC)cc2)CC1,"inconclusive: 12.6 µM [inhibitor, partial curve]",–
CCN(CC)S(=O)(=O)c1ccc(C)c(NC(=O)COC(=O)CN2C(=O)NC(C)(C)C2=O)c1,–,inactive: -10.2% [at 8.37 µM]
Cc1ccc(CCNC(=O)CS(=O)Cc2nc(-c3cccc(C)c3)oc2C)cc1 (centres undefined),"inconclusive: 25.1 µM [inhibitor, single point]",–
Cc1nn(-c2ccccc2)c(C)c1C(=O)OCC(=O)Nc1ccccc1,"inconclusive: 10 µM [inhibitor, partial curve]",–
CCOC(C[n+]1c(-c2ccccc2)cc(C)cc1-c1ccccc1)OCC,inactive,–

Structure (SMILES),Potency,"activity change, negative = inhibition"
Cc1cc(Nc2ccc3c(c2)OCCO3)c2cc(Cl)ccc2n1,"inconclusive: 10 µM [inhibitor, partial curve]",–
CN(Cc1c(F)cccc1Cl)C(=O)CCc1c[nH]c2ccccc12,inactive,–
CCOc1cc(C(=O)Nc2ccc(N3CCOCC3)cc2)cc(Br)c1OC,"inconclusive: 12.6 µM [inhibitor, partial curve]",–
Cc1cc(C)c2nc(-c3ccccn3)cc(C(=O)NCc3ccc(S(N)(=O)=O)cc3)c2c1,"inconclusive: 7.94 µM [inhibitor, partial curve]",–
O=C(Cn1c(=O)c2cccn2c2ccccc21)NCCc1ccccc1,inactive,–
CCN(CC)CCNC(=O)c1ccc(NC(=O)c2cccc(S(=O)(=O)N(C)C3CCCCC3)c2)cc1,"inconclusive: 14.1 µM [inhibitor, single point]",–
COc1ccccc1N1CCN(CCCCN2C(=O)c3ccccc3C2=O)CC1,"inconclusive: 14.1 µM [inhibitor, single point]",–
CCc1ccc(-c2csc3[n+]2CCN3C(C)=O)cc1,"inconclusive: 1.26 µM [inhibitor, full curve, poor fit]",–
CCNC(=S)N/N=C/c1ccccc1[N+](=O)[O-],inactive,–
COC(=O)c1nn(-c2cccc(Cl)c2)cc(OC)c1=O,inactive,–
C=CCN(C)CC/C=C1\c2ccccc2CSc2ccccc21,"inconclusive: 31.6 µM [inhibitor, single point]",–
COC(=O)c1sc(OC)cc1OCc1ccc(C)cc1,"inconclusive: 3.16 µM [inhibitor, single point]",–
Cn1ncc(Br)c1C(=O)Nc1cccc(C(F)(F)F)c1,inactive,–
O=C(Nc1ccc2oc(-c3ccccc3F)nc2c1)c1cncc(Br)c1,"inconclusive: 5.62 µM [inhibitor, single point]",–
CC(C)=C1CCC(C)CC1=NNC(N)=S (centres undefined),"inconclusive: 10 µM [inhibitor, partial curve]",–
Cc1cccc(N(CC(=O)NCCc2ccccc2)C(=O)CCC(=O)Nc2ccccn2)c1C,inactive,–
Cc1ccc2[nH]c(-c3cccc(F)c3)cc(=O)c2c1,"inconclusive: 3.55 µM [inhibitor, single point]",–
CCNC(=O)c1c(NC(=O)C2COc3ccccc3O2)sc2c1CCCC2 (centres undefined),"inconclusive: 2.82 µM [inhibitor, partial curve]",–
Cc1ccccc1NCC(=O)N=Nc1c(O)[nH]c2ccc([N+](=O)[O-])cc12,inactive,–
COc1ccc(NS(=O)(=O)c2cccc(C(=O)N3CCCC(C)C3)c2)cc1 (centres undefined),"inconclusive: 17.8 µM [inhibitor, single point]",–
COC(=O)CCn1nnc(-c2ccc(C)cc2)n1,"inconclusive: 5.01 µM [inhibitor, single point]",–
COc1ccc2c(c1)Cc1sc(NC(=O)c3cccs3)nc1-2,"inconclusive: 7.08 µM [inhibitor, partial curve]",–
COC(=O)CNc1nc(C2CC2)nc2c1nnn2Cc1ccccc1Cl,"inconclusive: 10 µM [inhibitor, single point]",–

Structure (SMILES),Potency,"activity change, negative = inhibition"
Cc1cccc(-c2nc(CSCC(=O)N3CCN(Cc4ccc5c(c4)OCO5)CC3)c(C)o2)c1,"inconclusive: 5.01 µM [inhibitor, full curve] and inconclusive: 11.2 µM [inhibitor, partial curve, poor fit]",–
CCCCOC(=O)c1ccc(NC(=O)COC(=O)CN2C(=O)NC3(CCCC3)C2=O)cc1,inactive,–
CCOC(=O)CNC(=O)C1c2ccccc2C(=O)N(c2ccc(OC)cc2)C1c1ccc(OC)cc1 (centres undefined),inactive,–
CC1CN(c2nc(N(C)c3ccccc3)nc(N)c2[N+](=O)[O-])CC(C)O1 (centres undefined),"inconclusive: 11.2 µM [inhibitor, single point]",–
CSc1cccc(NC(=S)N2CCC(N(C)C3CCCCC3C)CC2)c1 (centres undefined),"inconclusive: 11.2 µM [inhibitor, partial curve]",–
Cc1c(C(c2ccc(F)cc2)c2c(C)n(C)n(-c3ccccc3)c2=O)c(=O)n(-c2ccccc2)n1C,inactive,–
Cc1ccc(-n2c(C)cc3c2CC(C)(C)CC3=O)cc1C,"inconclusive: 10 µM [inhibitor, partial curve]",–
Clc1ccc(-c2csc(N/N=C/c3ccco3)n2)cc1,"inconclusive: 11.2 µM [inhibitor, single point]",–
O=C(CSc1ccc(-c2ccccc2)nn1)c1cccs1,"inconclusive: 31.6 µM [inhibitor, single point]",–
CCOC(=O)CNC(=O)COc1coc(CN2CCN(c3ccccc3F)CC2)cc1=O,inactive,–
N#Cc1ccc(-c2c(-c3ccccc3)ncc3cc(F)ccc23)cc1,"inconclusive: 25.1 µM [inhibitor, single point]",–
O=C(O)CSCC(=O)Nc1cccc2ccccc12,inactive,–
O=C(CCCN1C(=O)CSc2ncccc21)N1CCN(c2cccc(C(F)(F)F)c2)CC1,"inconclusive: 10 µM [inhibitor, partial curve]",–
COc1ccccc1OCCSc1nc(N)cc(N)n1,inactive,–
CCOC(=O)C1CCCN(CC(=O)Nc2ccc(C(=O)Nc3ccccc3OC)cc2)C1 (centres undefined),active: 11.2 µM,–
O=C(Nc1cccnc1)c1ccc(-c2cc(Cl)ccc2Cl)o1,active: 11.2 µM,–
O=C1CC(c2cc(Br)ccc2F)c2cc3c(cc2N1)CCC3 (centres undefined),"inconclusive: 1.78 µM [inhibitor, partial curve]",–
COc1ccc(C2C3=C(CCCC3=O)N(CC(=O)O)C3=C2C(=O)CCC3)cc1,inactive,–
O=S(=O)(c1ccc(NC(=S)NCc2ccncc2)cc1)N1CCCCC1,inactive,–
CCOc1ccc(C(=O)NCC(=O)OC(C)C(=O)NCc2ccco2)cc1OCC (centres undefined),"inconclusive: 2.51 µM [inhibitor, full curve]",–
COc1ccc(CCNC(=O)C(=O)N/N=C/c2cccs2)cc1OC,inactive,–
Cc1cccnc1NC(=O)c1ccc(NS(=O)(=O)c2ccc3[nH]c(=O)[nH]c3c2)cc1,inactive,–
COc1ccc2[nH]c3c(c2c1)CCN1C(=O)N([C@@H](C)C(=O)NCc2ccc(C)cc2)C(=O)[C@]31C,"inconclusive: 11.2 µM [inhibitor, partial curve]",–
